# From the supplement of paper PMC8728848
# Some of the results follow.
# B1: FimA-N1 (Actinomyces oris) (protein)
# chain: MHHHHHHSSGVDLGTENLYFQSNATETPNYGNIKTDATGSLVIHKHLTGGGKDIGTPTGTAQNADDKGPAVEGVVFTAYPITDINLKDPAGWDTISNLSRTGVPDSACANPAAPTLGAHQFGTPKVSPATTKEGLATITEMPVQAYLVCETTTPGDIVQKAKPFVVTIPHPNTAAGADGQWIYDVNVYPKNEAIDVDKTIQAQK
# Tests used:
# Assay in all cases: glycan array binding signal (z-score within array); higher = stronger binding
# Conditions in all cases: glycan notation: IUPAC condensed, linker removed
# [1] = target: GlcNAc(b1-3)Gal(b1-4)GlcNAc(b1-3)Gal(b1-4)GlcNAc(b1-3)GalNAc
# How it was run: (§1)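 The binding signal is a Z-score computed within each array. Data were drawn from 3228 arrays in the Consortium for Functional Glycomics database, restricted to those with a known protein sequence. Scores were averaged over arrays of the same protein sequence at different concentrations or buffers, and over linkers, and negative values can be taken as non-binding.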
# [2] = target: GlcNAc(b1-3)Gal(b1-4)GlcNAc(b1-3)GalNAc
# How it was run: as §1
# [3] = target: GlcNAc(b1-3)Gal(b1-4)GlcNAc(b1-3)[GlcNAc(b1-3)Gal(b1-4)GlcNAc(b1-3)]GalNAc
# How it was run: as §1
# [4] = target: GlcNAc(b1-3)Gal(b1-4)GlcNAc(b1-6)[Gal(b1-3)]GalNAc
# How it was run: as §1
# [5] = target: GlcNAc(b1-3)Gal(b1-4)GlcNAc(b1-6)[GlcNAc(b1-3)Gal(b1-3)]GalNAc
# How it was run: as §1
# [6] = target: GlcNAc(b1-3)Gal(b1-4)GlcNAc(b1-6)[GlcNAc(b1-3)]Gal(b1-4)GlcNAc
# How it was run: as §1
# GlcNAc(b1-3)GalNAc = target: GlcNAc(b1-3)GalNAc
# How it was run: as §1
# GlcNAc(b1-3)Man = target: GlcNAc(b1-3)Man
# How it was run: as §1
# [7] = target: GlcNAc(b1-3)[GlcNAc(b1-4)][GlcNAc(b1-6)]GlcNAc
# How it was run: as §1
# [8] = target: GlcNAc(b1-3)[GlcNAc(b1-6)]Gal(b1-4)GlcNAc
# How it was run: as §1
# [9] = target: GlcNAc(b1-3)[GlcNAc(b1-6)]GalNAc
# How it was run: as §1
# [10] = target: GlcNAc(b1-4)Gal(b1-4)GlcNAc
# How it was run: as §1
# GlcNAc(b1-4)GlcNAc = target: GlcNAc(b1-4)GlcNAc
# How it was run: as §1
# [11] = target: GlcNAc(b1-4)GlcNAc(b1-4)GlcNAc
# How it was run: as §1
# [12] = target: GlcNAc(b1-4)GlcNAc(b1-4)GlcNAc(b1-4)GlcNAc(b1-4)GlcNAc
# How it was run: as §1
# [13] = target: GlcNAc(b1-4)GlcNAc(b1-4)GlcNAc(b1-4)GlcNAc(b1-4)GlcNAc(b1-4)GlcNAc
# How it was run: as §1
# [14] = target: GlcNAc(b1-4)[GlcNAc(b1-6)]GalNAc
# How it was run: as §1
# [15] = target: GlcNAc(b1-6)Gal(b1-4)GlcNAc
# How it was run: as §1
# GlcNAc(b1-6)GalNAc = target: GlcNAc(b1-6)GalNAc
# How it was run: as §1
# [16] = target: GlcNAc6S(b1-3)Gal(b1-4)GlcNAc
# How it was run: as §1
# Kdn(a2-3)Gal(b1-3)GalNAc = target: Kdn(a2-3)Gal(b1-3)GalNAc
# How it was run: as §1
# Kdn(a2-3)Gal(b1-3)GlcNAc = target: Kdn(a2-3)Gal(b1-3)GlcNAc
# How it was run: as §1
# Kdn(a2-3)Gal(b1-4)Glc = target: Kdn(a2-3)Gal(b1-4)Glc
# How it was run: as §1
# Kdn(a2-3)Gal(b1-4)GlcNAc = target: Kdn(a2-3)Gal(b1-4)GlcNAc
# How it was run: as §1
# [17] = target: Kdn(a2-3)Gal(b1-4)[Fuc(a1-3)]GlcNAc
# How it was run: as §1
# Kdn(a2-6)Gal(b1-4)GlcNAc = target: Kdn(a2-6)Gal(b1-4)GlcNAc
# How it was run: as §1
# [18] = target: Man(a1-2)Man(a1-2)Man(a1-3)Man
# How it was run: as §1
# [19] = target: Man(a1-2)Man(a1-2)Man(a1-6)[Man(a1-3)]Man
# How it was run: as §1
# Man(a1-2)Man(a1-3)Man = target: Man(a1-2)Man(a1-3)Man
# How it was run: as §1
# [20] = target: Man(a1-2)Man(a1-3)[Man(a1-2)Man(a1-6)]Man
# How it was run: as §1
# [21] = target: Man(a1-2)Man(a1-3)[Man(a1-2)Man(a1-6)]Man(a1-6)[Man(a1-2)Man(a1-2)Man(a1-3)]Man
# How it was run: as §1
# [22] = target: Man(a1-2)Man(a1-3)[Man(a1-2)Man(a1-6)]Man(a1-6)[Man(a1-2)Man(a1-2)Man(a1-3)]Man(b1-4)GlcNAc(b1-4)GlcNAc
# How it was run: as §1
# [23] = target: Man(a1-2)Man(a1-3)[Man(a1-6)]Man(a1-6)[Man(a1-2)Man(a1-3)]Man(b1-4)GlcNAc(b1-4)GlcNAc
# How it was run: as §1
# [24] = target: Man(a1-2)Man(a1-6)[Man(a1-3)]Man(a1-6)[Man(a1-2)Man(a1-2)Man(a1-3)]Man
# How it was run: as §1
# [25] = target: Man(a1-2)Man(a1-6)[Man(a1-3)]Man(a1-6)[Man(a1-2)Man(a1-2)Man(a1-3)]Man(b1-4)GlcNAc(b1-4)GlcNAc
# How it was run: as §1
# Man(a1-3)[Man(a1-6)]Man = target: Man(a1-3)[Man(a1-6)]Man
# How it was run: as §1
# [26] = target: Man(a1-3)[Man(a1-6)]Man(a1-6)[Man(a1-2)Man(a1-3)]Man(b1-4)GlcNAc(b1-4)GlcNAc
# How it was run: as §1
# [27] = target: Man(a1-3)[Man(a1-6)]Man(a1-6)[Man(a1-3)]Man
# How it was run: as §1
# [28] = target: Man(a1-3)[Man(a1-6)]Man(a1-6)[Man(a1-3)]Man(b1-4)GlcNAc(b1-4)GlcNAc
# How it was run: as §1
# [29] = target: Man(a1-3)[Man(a1-6)]Man(b1-4)GlcNAc(b1-4)GlcNAc
# How it was run: as §1
# [30] = target: Man(a1-3)[Man(a1-6)]Man(b1-4)GlcNAc(b1-4)[Fuc(a1-6)]GlcNAc
# How it was run: as §1
# Man(a1-6)Man = target: Man(a1-6)Man
# How it was run: as §1
# Man(b1-4)GlcNAc = target: Man(b1-4)GlcNAc
# How it was run: as §1
# MurNAc(b1-4)GlcNAc = target: MurNAc(b1-4)GlcNAc
# How it was run: as §1
# Neu5Ac(a2-3)Gal = target: Neu5Ac(a2-3)Gal
# How it was run: as §1
binder,measurement,setting,value
B1,glycan array binding signal (z-score),[1],-0.174
same,glycan array binding signal (z-score),[2],-0.212
same,glycan array binding signal (z-score),[3],-0.067
same,glycan array binding signal (z-score),[4],-0.387
same,glycan array binding signal (z-score),[5],-0.187
same,glycan array binding signal (z-score),[6],-0.189
same,glycan array binding signal (z-score),GlcNAc(b1-3)GalNAc,-0.166
same,glycan array binding signal (z-score),GlcNAc(b1-3)Man,-0.364
same,glycan array binding signal (z-score),[7],0.063
same,glycan array binding signal (z-score),[8],-0.464
same,glycan array binding signal (z-score),[9],-0.256
same,glycan array binding signal (z-score),[10],-0.053
same,glycan array binding signal (z-score),GlcNAc(b1-4)GlcNAc,-0.235
same,glycan array binding signal (z-score),[11],-0.134
same,glycan array binding signal (z-score),[12],-0.228
same,glycan array binding signal (z-score),[13],0.163
same,glycan array binding signal (z-score),[14],-0.239
same,glycan array binding signal (z-score),[15],-0.334
same,glycan array binding signal (z-score),GlcNAc(b1-6)GalNAc,-0.13
same,glycan array binding signal (z-score),[16],-0.412
same,glycan array binding signal (z-score),Kdn(a2-3)Gal(b1-3)GalNAc,-0.338
same,glycan array binding signal (z-score),Kdn(a2-3)Gal(b1-3)GlcNAc,-0.396
same,glycan array binding signal (z-score),Kdn(a2-3)Gal(b1-4)Glc,0.117
same,glycan array binding signal (z-score),Kdn(a2-3)Gal(b1-4)GlcNAc,-0.378
same,glycan array binding signal (z-score),[17],0.321
same,glycan array binding signal (z-score),Kdn(a2-6)Gal(b1-4)GlcNAc,0.491
same,glycan array binding signal (z-score),[18],0.382
same,glycan array binding signal (z-score),[19],0.038
same,glycan array binding signal (z-score),Man(a1-2)Man(a1-3)Man,-0.084
same,glycan array binding signal (z-score),[20],-0.309
same,glycan array binding signal (z-score),[21],-0.401
same,glycan array binding signal (z-score),[22],-0.316
same,glycan array binding signal (z-score),[23],-0.456
same,glycan array binding signal (z-score),[24],-0.351
same,glycan array binding signal (z-score),[25],-0.019
same,glycan array binding signal (z-score),Man(a1-3)[Man(a1-6)]Man,-0.359
same,glycan array binding signal (z-score),[26],0.024
same,glycan array binding signal (z-score),[27],0.2
same,glycan array binding signal (z-score),[28],-0.229
same,glycan array binding signal (z-score),[29],-0.122
same,glycan array binding signal (z-score),[30],-0.598
same,glycan array binding signal (z-score),Man(a1-6)Man,0.12
same,glycan array binding signal (z-score),Man(b1-4)GlcNAc,-0.154
same,glycan array binding signal (z-score),MurNAc(b1-4)GlcNAc,-0.089
same,glycan array binding signal (z-score),Neu5Ac(a2-3)Gal,-0.306
